No constants are given. Whether binding was seen depends on the method and setting. For some assays here: Binding seen in cells or lysates may run through a third protein. Some results given as binding are weak or reduced against the parent protein; the word gives no strength. For some assays here: Sequences can lack the tags named with a protein.

Amino acid sequences for entries named in this document (tags omitted). Residues count along the entry.
UniProt P56480, residues 47-529: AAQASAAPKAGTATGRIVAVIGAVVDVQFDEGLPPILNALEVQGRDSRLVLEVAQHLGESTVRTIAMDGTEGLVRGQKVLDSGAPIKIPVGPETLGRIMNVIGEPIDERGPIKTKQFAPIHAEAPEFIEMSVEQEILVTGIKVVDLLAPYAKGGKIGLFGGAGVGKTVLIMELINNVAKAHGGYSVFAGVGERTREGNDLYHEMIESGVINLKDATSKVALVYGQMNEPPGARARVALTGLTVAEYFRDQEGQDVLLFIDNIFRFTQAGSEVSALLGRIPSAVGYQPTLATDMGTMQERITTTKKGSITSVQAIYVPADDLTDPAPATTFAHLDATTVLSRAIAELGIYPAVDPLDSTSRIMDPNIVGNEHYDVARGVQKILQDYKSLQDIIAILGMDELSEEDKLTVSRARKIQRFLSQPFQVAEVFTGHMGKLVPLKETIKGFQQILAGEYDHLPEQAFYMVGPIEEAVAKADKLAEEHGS
UniProt P05496, residues 62-136: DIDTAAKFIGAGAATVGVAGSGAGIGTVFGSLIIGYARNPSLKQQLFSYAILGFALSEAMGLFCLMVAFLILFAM

6 molecules from publication PMC9870916 can be followed below.

Test [1] has as its target β subunit of ATP synthase, endogenous in MEFs (mouse (endogenous in MEFs)) (UniProt P56480). The test is described as follows: co-IP; β subunit immunoprecipitated (protein G dynabeads) from permeabilized MEFs (pcDNA3.1, IF1 WT, IF1 Y33R) kept in ATP hydrolysis buffer; blot for β and IF1.
Substrate in test [2]: T1, OSCP subunit of ATP synthase, endogenous in MEFs (mouse (endogenous in MEFs)) (UniProt Q9DB20)
T1 sequence: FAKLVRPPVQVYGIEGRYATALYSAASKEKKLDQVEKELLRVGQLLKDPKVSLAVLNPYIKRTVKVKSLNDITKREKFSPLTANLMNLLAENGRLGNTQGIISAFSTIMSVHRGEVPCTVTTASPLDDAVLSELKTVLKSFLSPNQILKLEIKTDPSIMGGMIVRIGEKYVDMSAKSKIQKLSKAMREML
The test is described as follows: co-IP; OSCP subunit immunoprecipitated (protein G dynabeads) from permeabilized MEFs (pcDNA3.1, IF1 WT, IF1 Y33R) kept in state 3 buffer; blot for OSCP and IF1.

The target of a further test is T2, IF1-CT (A44-D81) (human) (UniProt Q9UII2).
T2 sequence: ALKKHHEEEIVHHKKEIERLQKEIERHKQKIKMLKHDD
As to the kind of experiment: NMR titration; 1H-15N SOFAST-HMQC of 15N-labelled IF1-CT without and with 12-fold molar excess of unlabelled OSCP-NT or OSCP-CT; both purified.

A further test concerns the target T3, IF1-NT (G1-E40) (human) (UniProt Q9UII2).
T3 sequence: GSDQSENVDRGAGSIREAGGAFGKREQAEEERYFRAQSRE
The test is described as follows: NMR titration; 1H-15N SOFAST-HMQC of 15N-labelled IF1-NT without and with 15-fold molar excess of unlabelled OSCP-NT or OSCP-CT; for OSCP-NT: 30 μM IF1-NT, 450 μM OSCP-NT, 50 mM phosphate, 300 mM NaCl, pH 7.0, 7 °C; both purified.

Test [3] has as its target T4, ATP synthase oligomycin sensitivity conferring protein (OSCP) (human (endogenous in HeLa)) (UniProt P48047).
T4 sequence: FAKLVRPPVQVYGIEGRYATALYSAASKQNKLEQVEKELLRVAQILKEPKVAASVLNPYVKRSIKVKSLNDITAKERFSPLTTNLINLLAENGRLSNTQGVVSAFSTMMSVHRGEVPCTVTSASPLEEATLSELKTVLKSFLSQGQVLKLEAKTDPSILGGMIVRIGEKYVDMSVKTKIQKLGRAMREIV
As to the kind of experiment: proximity ligation; Duolink In Situ Red; CTR and IF1 KO HeLa cells fixed with 2% paraformaldehyde, permeabilized with 0.15% Triton X-100; pairs of mouse and rabbit primary antibodies; red dots per nucleus.

The target in test [4] is c subunit of ATP synthase (human (endogenous in HeLa)) (UniProt P05496). Described as above.
Test [5] deals with T5, f subunit of ATP synthase (human (endogenous in HeLa)) (UniProt P56134).
T5 sequence: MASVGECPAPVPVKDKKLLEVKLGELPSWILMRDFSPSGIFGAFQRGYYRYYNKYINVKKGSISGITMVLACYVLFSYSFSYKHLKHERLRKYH
Described as above.

In test [6] the target is T4, ATP synthase oligomycin sensitivity conferring protein (OSCP) (human (endogenous in HeLa)). As to the kind of experiment: co-IP; OSCP immunoprecipitated (anti-OSCP, protein G dynabeads) from freshly prepared HeLa mitochondria kept in state 3 (ATP synthesis) buffer; IP buffer with 0.5% Triton X-100, 0.25% SDS, pH 7.4; blot for IF1.
For test [7] the target is unchanged. The test is described as follows: co-IP; OSCP or β subunit immunoprecipitated (protein G dynabeads) from permeabilized HeLa cells kept in state 3 buffer; IP buffer with 0.5% Triton X-100, 0.25% SDS, pH 7.4; blot for IF1; also with increasing doses of Bz423 (IF1 displaced dose-dependently).

B1: IF1, endogenous in mouse embryonic fibroblasts (protein, UniProt O35143 26-106)
chain: VSDSSDSMDTGAGSIREAGGAFGKREKAEEDRYFREKTKEQLAALRKHHEDEIDHHSKEIERLQKQIERHKKKIQQLKNNH
Turning to B1, the binding entry in test [1] and in test [2] was “binds” each time.

B2: OSCP-CT (G114-V190) (domain or fragment, UniProt P48047 137-213)
chain: GEVPCTVTSASPLEEATLSELKTVLKSFLSQGQVLKLEAKTDPSILGGMIVRIGEKYVDMSVKTKIQKLGRAMREIV
As to B2, the binding result with IF1-CT (A44-D81) (human) was “no binding (tested: 12-fold molar excess of OSCP-CT)”; with IF1-NT (G1-E40) (human), “no binding (tested: 15-fold molar excess of OSCP-CT)”.

B3: human IF1 wild type overexpressed in MEFs (IF1 WT) (protein, UniProt Q9UII2-1 26-106)
chain: GSDQSENVDRGAGSIREAGGAFGKREQAEEERYFRAQSREQLAALKKHHEEEIVHHKKEIERLQKEIERHKQKIKMLKHDD
Take B3: the binding result in test [1] and in test [2] was “binds” each time.

B4: inhibitor factor 1 (IF1) (protein, UniProt Q9UII2 26-106)
chain: GSDQSENVDRGAGSIREAGGAFGKREQAEEERYFRAQSREQLAALKKHHEEEIVHHKKEIERLQKEIERHKQKIKMLKHDD
B4: the binding entry in test [3] is reported as “binds”; in test [4], “no binding”; in test [5], “no binding”; in [6], “binds”; in test [7], “binds”.

B5: human IF1 mutant Y33R overexpressed in MEFs (IF1 Y33R) (protein, UniProt Q9UII2-1 26-106)
chain: GSDQSENVDRGAGSIREAGGAFGKREQAEEERRFRAQSREQLAALKKHHEEEIVHHKKEIERLQKEIERHKQKIKMLKHDD
As for B5, the results for the binding entry in test [1] and in test [2] were “no binding” and “binds”, respectively.

B6: OSCP-NT (R6-G114) (domain or fragment, UniProt P48047 29-137)
chain: RPPVQVYGIEGRYATALYSAASKQNKLEQVEKELLRVAQILKEPKVAASVLNPYVKRSIKVKSLNDITAKERFSPLTTNLINLLAENGRLSNTQGVVSAFSTMMSVHRG
For B6, the binding entry with IF1-CT (A44-D81) (human) is on record as “no binding (tested: 12-fold molar excess of OSCP-NT)”.
